# Measurements published in the supplement of paper PMC8728848.
# The other results are listed elsewhere or left out.
# Tests used:
# Test in all cases: glycan array binding signal (z-score within array); higher = stronger binding
# Settings in all cases: glycan notation: IUPAC condensed, linker removed
# Fuc(a1-2)Gal = biological target: Fuc(a1-2)Gal
# Outline: (§1)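 Columns mapping to the same glycan were averaged after glycan names were converted to IUPAC-condensed notation. The data come from 3228 arrays in the Consortium for Functional Glycomics database, limited to those with an available protein sequence. Binding is reported as a within-array Z-score averaged across arrays of one protein sequence and across linkers.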
# Fuc(a1-2)Gal(b1-3)GalNAc = biological target: Fuc(a1-2)Gal(b1-3)GalNAc
# Outline: as §1
# [1] = biological target: Fuc(a1-2)Gal(b1-3)GalNAc(a1-3)[Fuc(a1-2)]Gal(b1-4)Glc
# Outline: as §1
# [2] = biological target: Fuc(a1-2)Gal(b1-3)GalNAc(a1-3)[Fuc(a1-2)]Gal(b1-4)GlcNAc
# Outline: as §1
# [3] = biological target: Fuc(a1-2)Gal(b1-3)GalNAc(b1-3)Gal
# Outline: as §1
# [4] = biological target: Fuc(a1-2)Gal(b1-3)GalNAc(b1-3)Gal(a1-4)Gal(b1-4)Glc
# Outline: as §1
# [5] = biological target: Fuc(a1-2)Gal(b1-3)GalNAc(b1-4)[Neu5Ac(a2-3)]Gal(b1-4)Glc
# Outline: as §1
# Fuc(a1-2)Gal(b1-3)GlcNAc = biological target: Fuc(a1-2)Gal(b1-3)GlcNAc
# Outline: as §1
# [6] = biological target: Fuc(a1-2)Gal(b1-3)GlcNAc(b1-2)Man(a1-3)[Fuc(a1-2)Gal(b1-3)GlcNAc(b1-2)Man(a1-6)]Man(b1-4)GlcNAc(b1-4)GlcNAc
# Outline: as §1
# [7] = biological target: Fuc(a1-2)Gal(b1-3)GlcNAc(b1-2)Man(a1-3)[Fuc(a1-2)Gal(b1-3)GlcNAc(b1-2)Man(a1-6)]Man(b1-4)GlcNAc(b1-4)[Fuc(a1-6)]GlcNAc
# Outline: as §1
# [8] = biological target: Fuc(a1-2)Gal(b1-3)GlcNAc(b1-3)Gal(b1-4)Glc
# Outline: as §1
# [9] = biological target: Fuc(a1-2)Gal(b1-3)GlcNAc(b1-3)GalNAc
# Outline: as §1
# [10] = biological target: Fuc(a1-2)Gal(b1-3)GlcNAc(b1-3)[Fuc(a1-2)Gal(b1-3)GlcNAc(b1-6)]GalNAc
# Outline: as §1
# [11] = biological target: Fuc(a1-2)Gal(b1-3)GlcNAc(b1-3)[Gal(b1-4)GlcNAc(b1-6)]Gal(b1-4)Glc
# Outline: as §1
# [12] = biological target: Fuc(a1-2)Gal(b1-3)GlcNAc(b1-3)[Neu5Ac(a2-6)Gal(b1-4)GlcNAc(b1-6)]Gal(b1-4)Glc
# Outline: as §1
# [13] = biological target: Fuc(a1-2)Gal(b1-3)GlcNAc6S
# Outline: as §1
# [14] = biological target: Fuc(a1-2)Gal(b1-3)[Fuc(a1-4)]GlcNAc
# Outline: as §1
# [15] = biological target: Fuc(a1-2)Gal(b1-3)[Fuc(a1-4)]GlcNAc(b1-2)Man(a1-3)[Fuc(a1-2)Gal(b1-3)[Fuc(a1-4)]GlcNAc(b1-2)Man(a1-3)]Man(b1-4)GlcNAc(b1-4)GlcNAc
# Outline: as §1
# [16] = biological target: Fuc(a1-2)Gal(b1-3)[Fuc(a1-4)]GlcNAc(b1-2)Man(a1-3)[Fuc(a1-2)Gal(b1-3)[Fuc(a1-4)]GlcNAc(b1-2)Man(a1-6)]Man(b1-4)GlcNAc(b1-4)[Fuc(a1-6)]GlcNAc(b1-4)[Fuc(a1-6)]GlcNAc
# Outline: as §1
# [17] = biological target: Fuc(a1-2)Gal(b1-3)[Fuc(a1-4)]GlcNAc(b1-3)[Fuc(a1-3)[Gal(b1-4)]GlcNAc(b1-6)]Gal(b1-4)Glc
# Outline: as §1
# [18] = biological target: Fuc(a1-2)Gal(b1-3)[Fuc(a1-4)]GlcNAc(b1-3)[Gal(b1-4)GlcNAc(b1-6)]Gal(b1-4)Glc
# Outline: as §1
# Fuc(a1-2)Gal(b1-4)Glc = biological target: Fuc(a1-2)Gal(b1-4)Glc
# Outline: as §1
binder,measurement,setting,value
LngA (Escherichia coli) (protein) MLSVYNRTQKFKAEARKKIAKYHELRKQRGMSLLEVIIVLGIIGTIAAGVVILAQRAFDSRAVTDLVTNTNTVRVRMKDAYQRDGKYPDFVDPLSLTANTIKTDTSGIPAAQLVQLGKITPDEVRNNISGDFIAIGGALTSNGAQVKKGFAIELNGLSQEQCRSILGQVGNNWEYVAIGTSASGSYAMTATGVDMSVAASTTVLRSLGNNGQTTLTADKILSTCTAQVNSITLGSR,glycan array binding signal (z-score),Fuc(a1-2)Gal,-0.265
same,glycan array binding signal (z-score),Fuc(a1-2)Gal(b1-3)GalNAc,-0.471
same,glycan array binding signal (z-score),[1],-0.299
same,glycan array binding signal (z-score),[2],0.087
same,glycan array binding signal (z-score),[3],1.06
same,glycan array binding signal (z-score),[4],-0.303
same,glycan array binding signal (z-score),[5],-0.424
same,glycan array binding signal (z-score),Fuc(a1-2)Gal(b1-3)GlcNAc,0.542
same,glycan array binding signal (z-score),[6],1.12
same,glycan array binding signal (z-score),[7],-0.231
same,glycan array binding signal (z-score),[8],-0.405
same,glycan array binding signal (z-score),[9],-0.307
same,glycan array binding signal (z-score),[10],0.331
same,glycan array binding signal (z-score),[11],-0.442
same,glycan array binding signal (z-score),[12],-0.479
same,glycan array binding signal (z-score),[13],-0.063
same,glycan array binding signal (z-score),[14],-0.534
same,glycan array binding signal (z-score),[15],1.11
same,glycan array binding signal (z-score),[16],-0.302
same,glycan array binding signal (z-score),[17],-0.544
same,glycan array binding signal (z-score),[18],-0.552
same,glycan array binding signal (z-score),Fuc(a1-2)Gal(b1-4)Glc,-0.027
